Measured values reported in publication PMC9588639 (Journal of thrombosis and haemostasis : JTH, 2022).

Target: human GPIbα LBD (mature protein residues 1-290) W230L (human, UniProt P07359 17-306, W230L)
Test: BLI

UniProt P07359, sequence (P07359 17-306 W246L): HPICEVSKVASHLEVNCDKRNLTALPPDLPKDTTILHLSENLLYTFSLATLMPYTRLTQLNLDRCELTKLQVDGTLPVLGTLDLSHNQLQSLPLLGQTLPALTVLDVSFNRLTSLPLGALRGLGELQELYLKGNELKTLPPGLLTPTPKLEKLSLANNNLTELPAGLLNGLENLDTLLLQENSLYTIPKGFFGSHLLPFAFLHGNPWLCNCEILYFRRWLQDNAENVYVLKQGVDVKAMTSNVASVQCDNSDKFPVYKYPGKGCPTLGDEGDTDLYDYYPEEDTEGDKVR

binding result: binds
B1: recombinant hAIM-A1 protein, containing […] of human VWF (domain or fragment)
chain: not shown
